Some of the results follow.
Tests used:
Test in all cases: glycan array binding signal (z-score within array); higher = stronger binding
Details in all cases: glycan notation: IUPAC condensed, linker removed
[1] = molecular target: Man(a1-2)Man(a1-3)[Man(a1-2)Man(a1-6)]Man
How it was run: (§1)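 The binding signal is a Z-score computed within each array. Data were drawn from 3228 arrays in the Consortium for Functional Glycomics database, restricted to those with a known protein sequence. Scores were averaged over arrays of the same protein sequence at different concentrations or buffers, and over linkers, and negative values can be taken as non-binding.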

[2] = molecular target: Man(a1-2)Man(a1-3)[Man(a1-2)Man(a1-6)]Man(a1-6)[Man(a1-2)Man(a1-2)Man(a1-3)]Man
How it was run: as §1

[3] = molecular target: Man(a1-2)Man(a1-3)[Man(a1-2)Man(a1-6)]Man(a1-6)[Man(a1-2)Man(a1-2)Man(a1-3)]Man(b1-4)GlcNAc(b1-4)GlcNAc
How it was run: as §1

[4] = molecular target: Man(a1-2)Man(a1-3)[Man(a1-6)]Man(a1-6)[Man(a1-2)Man(a1-3)]Man(b1-4)GlcNAc(b1-4)GlcNAc
How it was run: as §1

[5] = molecular target: Man(a1-2)Man(a1-6)[Man(a1-3)]Man(a1-6)[Man(a1-2)Man(a1-2)Man(a1-3)]Man
How it was run: as §1

[6] = molecular target: Man(a1-2)Man(a1-6)[Man(a1-3)]Man(a1-6)[Man(a1-2)Man(a1-2)Man(a1-3)]Man(b1-4)GlcNAc(b1-4)GlcNAc
How it was run: as §1

[7] = molecular target: Man(a1-3)[Man(a1-6)]Man
How it was run: as §1

[8] = molecular target: Man(a1-3)[Man(a1-6)]Man(a1-6)[Man(a1-2)Man(a1-3)]Man(b1-4)GlcNAc(b1-4)GlcNAc
How it was run: as §1

[9] = molecular target: Man(a1-3)[Man(a1-6)]Man(a1-6)[Man(a1-3)]Man
How it was run: as §1

[10] = molecular target: Man(a1-3)[Man(a1-6)]Man(a1-6)[Man(a1-3)]Man(b1-4)GlcNAc(b1-4)GlcNAc
How it was run: as §1

[11] = molecular target: Man(a1-3)[Man(a1-6)]Man(b1-4)GlcNAc(b1-4)GlcNAc
How it was run: as §1

[12] = molecular target: Man(a1-3)[Man(a1-6)]Man(b1-4)GlcNAc(b1-4)[Fuc(a1-6)]GlcNAc
How it was run: as §1

[13] = molecular target: Man(a1-6)Man
How it was run: as §1

[14] = molecular target: Man(b1-4)GlcNAc
How it was run: as §1

[15] = molecular target: MurNAc(b1-4)GlcNAc
How it was run: as §1

[16] = molecular target: Neu5Ac(a2-3)Gal
How it was run: as §1

[17] = molecular target: Neu5Ac(a2-3)Gal(b1-3)GalNAc
How it was run: as §1

[18] = molecular target: Neu5Ac(a2-3)Gal(b1-3)GalNAc(b1-3)Gal(a1-4)Gal(b1-4)Glc
How it was run: as §1

[19] = molecular target: Neu5Ac(a2-3)Gal(b1-3)GalNAc(b1-4)Gal(b1-4)Glc
How it was run: as §1

[20] = molecular target: Neu5Ac(a2-3)Gal(b1-3)GalNAc(b1-4)[Neu5Ac(a2-3)]Gal(b1-4)Glc
How it was run: as §1

[21] = molecular target: Neu5Ac(a2-3)Gal(b1-3)GalNAc(b1-4)[Neu5Ac(a2-8)Neu5Ac(a2-3)]Gal(b1-4)Glc
How it was run: as §1

[22] = molecular target: Neu5Ac(a2-3)Gal(b1-3)GalNAc6S
How it was run: as §1

[23] = molecular target: Neu5Ac(a2-3)Gal(b1-3)GlcNAc
How it was run: as §1

[24] = molecular target: Neu5Ac(a2-3)Gal(b1-3)GlcNAc(b1-2)Man
How it was run: as §1

[25] = molecular target: Neu5Ac(a2-3)Gal(b1-3)GlcNAc(b1-2)Man(a1-3)[GlcNAc(b1-4)][Neu5Ac(a2-3)Gal(b1-3)GlcNAc(b1-2)Man(a1-6)]Man(b1-4)GlcNAc(b1-4)GlcNAc
How it was run: as §1

[26] = molecular target: Neu5Ac(a2-3)Gal(b1-3)GlcNAc(b1-2)Man(a1-3)[Neu5Ac(a2-3)Gal(b1-3)GlcNAc(b1-2)Man(a1-6)]Man(b1-4)GlcNAc(b1-4)GlcNAc
How it was run: as §1

[27] = molecular target: Neu5Ac(a2-3)Gal(b1-3)GlcNAc(b1-2)[Neu5Ac(a2-3)Gal(b1-3)GlcNAc(b1-4)]Man(a1-6)[Neu5Ac(a2-3)Gal(b1-3)GlcNAc(b1-2)Man(a1-3)]Man(b1-4)GlcNAc(b1-4)GlcNAc
How it was run: as §1

[28] = molecular target: Neu5Ac(a2-3)Gal(b1-3)GlcNAc(b1-3)Gal(b1-3)GlcNAc
How it was run: as §1

[29] = molecular target: Neu5Ac(a2-3)Gal(b1-3)GlcNAc(b1-3)Gal(b1-4)GlcNAc
How it was run: as §1

[30] = molecular target: Neu5Ac(a2-3)Gal(b1-3)GlcNAc(b1-3)GalNAc
How it was run: as §1

[31] = molecular target: Neu5Ac(a2-3)Gal(b1-3)GlcNAc(b1-6)GalNAc
How it was run: as §1

[32] = molecular target: Neu5Ac(a2-3)Gal(b1-3)GlcNAc6S
How it was run: as §1

[33] = molecular target: Neu5Ac(a2-3)Gal(b1-3)[Fuc(a1-4)]GlcNAc
How it was run: as §1

[34] = molecular target: Neu5Ac(a2-3)Gal(b1-3)[Fuc(a1-4)]GlcNAc(b1-3)Gal(b1-3)[Fuc(a1-4)]GlcNAc
How it was run: as §1

[35] = molecular target: Neu5Ac(a2-3)Gal(b1-3)[Fuc(a1-4)]GlcNAc(b1-3)Gal(b1-4)[Fuc(a1-3)]GlcNAc
How it was run: as §1

[36] = molecular target: Neu5Ac(a2-3)Gal(b1-3)[GlcNAc(b1-6)]GalNAc
How it was run: as §1

[37] = molecular target: Neu5Ac(a2-3)Gal(b1-3)[Neu5Ac(a2-6)]GalNAc
How it was run: as §1

B1: DC-ASGPR S+GEE (Homo sapiens) (protein)
chain: MTRTYENFQYLENKVKVQGFKNGPLPLQSLLQRLRSGPCHLLLSLGLGLLLLVIICVVGFQNSKFQRDLVTLRTDFSNFTSNTVAEIQALTSQGSSLEETIASLKAEVEGFKQERQAVHSEMLLRVQQLVQDLKKLTCQVATINNNGEEASTEGTCCPVNWVEHQDSCYWFSHSGMSWAEAEKYCQLKNAHLVVINSREEQNFVQKYLGSAYTWMGLSDPEGAWKWVDGTDYATGFQNWKPGQPDDWQGHGLGGGEDCAHFHPDGRWNDDVCQRPYHWVCEAGLGQTSQESH
- glycan array binding signal (z-score) [1]: -0.281
- glycan array binding signal (z-score) [2]: -0.307
- glycan array binding signal (z-score) [3]: -0.231
- glycan array binding signal (z-score) [4]: -0.267
- glycan array binding signal (z-score) [5]: -0.327
- glycan array binding signal (z-score) [6]: -0.317
- glycan array binding signal (z-score) [7]: -0.34
- glycan array binding signal (z-score) [8]: -0.252
- glycan array binding signal (z-score) [9]: -0.368
- glycan array binding signal (z-score) [10]: -0.35
- glycan array binding signal (z-score) [11]: -0.021
- glycan array binding signal (z-score) [12]: -0.295
- glycan array binding signal (z-score) [13]: -0.36
- glycan array binding signal (z-score) [14]: -0.339
- glycan array binding signal (z-score) [15]: -0.355
- glycan array binding signal (z-score) [16]: -0.207
- glycan array binding signal (z-score) [17]: -0.249
- glycan array binding signal (z-score) [18]: -0.294
- glycan array binding signal (z-score) [19]: -0.336
- glycan array binding signal (z-score) [20]: -0.329
- glycan array binding signal (z-score) [21]: -0.272
- glycan array binding signal (z-score) [22]: -0.291
- glycan array binding signal (z-score) [23]: -0.319
- glycan array binding signal (z-score) [24]: -0.395
- glycan array binding signal (z-score) [25]: -0.29
- glycan array binding signal (z-score) [26]: -0.375
- glycan array binding signal (z-score) [27]: -0.229
- glycan array binding signal (z-score) [28]: -0.301
- glycan array binding signal (z-score) [29]: -0.349
- glycan array binding signal (z-score) [30]: -0.336
- glycan array binding signal (z-score) [31]: 4.84
- glycan array binding signal (z-score) [32]: -0.306
- glycan array binding signal (z-score) [33]: -0.235
- glycan array binding signal (z-score) [34]: -0.216
- glycan array binding signal (z-score) [35]: -0.15
- glycan array binding signal (z-score) [36]: -1.57
- glycan array binding signal (z-score) [37]: -0.155

— the supplement of paper PMC8728848
